Results on 34 variants are retold here after the RNAGym collection of RNA variant scans (doi:10.1093/nar/gkz1192).

Read counts are not given, so values of variants with three or more changes are uncertain.

B1: CPEB3 Ribozyme (parent)
chain: UAACAGGGGGCCACAGCAGAAGCGUUCACGUCGCAGCCCCUGUCAGAUUCUGGUGAAUCUGCGAAUUCUGCUGUAUAUCUC

The data set covers variants of B1. Briefly: self-cleavage, relative activity (ratio to wild type); higher = more cleavage; in vitro, sequencing. In a few lines: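 Libraries of CPEB3 self-cleaving ribozyme mutants came from rounds of error-prone PCR and carried barcodes, which DNA sequencing matched to variants. In vitro transcription used T7 RNA polymerase at 37°C for 5 hours, with a further 15 min in DNase I before EDTA stopped the reaction; the ribozymes cleaved during both steps. The RNA was reverse transcribed with template switching and sequenced on Illumina. Relative activity is the cleaved/total read fraction of a variant divided by that of the unmutated ribozyme, averaged over three batches with at least 5 reads.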
UAACAGGGGGCCACAGCAGAAGCGUUCACGUCGCAGCCCCUGUCAGAUUCUGGUGAAUCUGCGGAUCCUGCUGUAUACCUC [A64G U67C U78C]: the self-cleavage came out at 0.38. Then UAACAGGGGGCCACAGCAGAAGCGUUCACGUCGCAGCCCCUGUCAGAUUCUGGUGAAUCUGCGAGUUCUGCUGUACAUCAC [A65G U76C U80A], with 0.47; and UAACAGGGGGCCACAGCAGAAGCGUUCACGUCGCAGCCCCUGUCAGAUUCUGGUGAAUCUGCGAAAUGUGCCGUAUAUCUC [U66A C68G U72C], with 0.41. Then UAACAGGGGGCCACAGCAGAAGCGUUCACGUCGCAGCCCCUGUCAGAUUCUGGUGAAUCUGCGAGGUCCGCUGUAUCUCCC [A65G U66G U69C A77C U80C], with 0; and UAACAGGGGGCCACAGCAGAAGCGUUCACGUCGCAGCCCCUGUCAGAUUCUGGUGAAUCUGCGAGUACCGCUGUAUAUCUC [A65G U67A U69C], with 0.32. Then UAACAGGGGGCCACAGCAGAAGCGUUCACGUCGCAGCCCCUGUCAGAUUCUGGUGAAUCUGCGAGUUCCGCUGUAUACCUC [A65G U69C U78C], with 0.37; and UAACAGGGGGCCACAGCAGAAGCGUUCACGUCGCAGCCCCUGUCAGAUUCUGGUGAAUCUGCGAUUUCUGCAGUAUAUCCC [A65U U72A U80C], with 0.37. Consider UAACAGGGGGCCACAGCAGAAGCGUUCACGUCGCAGCCCCUGUCAGAUUCUGGUGAAUCUGCGAGUUCUGCUGUACGUCUC [A65G U76C A77G], for which the self-cleavage is 0.34. Then UAACAGGGGGCCACAGCAGAAGCGUUCACGUCGCAGCCCCUGUCAGAUUCUGGUGAAUCUGCGAAACCCGCUGUAUAUCUU [U66A U67C U69C C81U], with 0.2. Then UAACAGGGGGCCACAGCAGAAGCGUUCACGUCGCAGCCCCUGUCAGAUUCUGGUGAAUCUGCGAGUUCUGCAGUAUAUCCC [A65G U72A U80C], with 0.81; and UAACAGGGGGCCACAGCAGAAGCGUUCACGUCGCAGCCCCUGUCAGAUUCUGGUGAAUCUGCGAGUGCUGCUGUAUACCUC [A65G U67G U78C], with 0.4.

UAACAGGGGGCCACAGCAGAAGCGUUCACGUCGCAGCCCCUGUCAGAUUCUGGUGAAUCUGCGAGUCCUGCUGUAUAUCCC [A65G U67C U80C]: the self-cleavage came to 0.3. Then UAACAGGGGGCCACAGCAGAAGCGUUCACGUCGCAGCCCCUGUCAGAUUCUGGUGAAUCUGCGAAAUCCGCUGUACAUCUC [U66A U69C U76C], with 0.21. In the case of UAACAGGGGGCCACAGCAGAAGCGUUCACGUCGCAGCCCCUGUCAGAUUCUGGUGAAUCUGCGAUUUCUGCUGUAAGUCUC [A65U U76A A77G], the self-cleavage was 0.23. Then UAACAGGGGGCCACAGCAGAAGCGUUCACGUCGCAGCCCCUGUCAGAUUCUGGUGAAUCUGCGGAUUCCGCUGCAUAUCUC [A64G U69C U74C], with 0.59; and UAACAGGGGGCCACAGCAGAAGCGUUCACGUCGCAGCCCCUGUCAGAUUCUGGUGAAUCUGCGAAAUCCGUUGUGUACCUC [U66A U69C C71U A75G U78C], with 0.23; and UAACAGGGGGCCACAGCAGAAGCGUUCACGUCGCAGCCCCUGUCAGAUUCUGGUGAAUCUGCGUAUCCUGCCGUAUAUCUC [A64U U67C U72C], with 0.28. Then UAACAGGGGGCCACAGCAGAAGCGUUCACGUCGCAGCCCCUGUCAGAUUCUGGUGAAUCUGCGUAUUCCGCUGUAUGUCUC [A64U U69C A77G], with 0.42; and UAACAGGGGGCCACAGCAGAAGCGUUCACGUCGCAGCCCCUGUCAGAUUCUGGUGAAUCUGCGAACCCUGCUGUAUACCUC [U66C U67C U78C], with 0.26; and UAACAGGGGGCCACAGCAGAAGCGUUCACGUCGCAGCCCCUGUCAGAUUCUGGUGAAUCUGCGAAACCUGCUGAAUAUCUC [U66A U67C U74A], with 0.28. Then UAACAGGGGGCCACAGCAGAAGCGUUCACGUCGCAGCCCCUGUCAGAUUCUGGUGAAUCUGCGUACUCUGCCGUAUAUCUC [A64U U66C U72C], with 0.29.

Take UAACAGGGGGCCACAGCAGAAGCGUUCACGUCGCAGCCCCUGUCAGAUUCUGGUGAAUCUGCGUACUCUGCGGUAUAUCUC [A64U U66C U72G]: the self-cleavage turned out to be 0.14. Then UAACAGGGGGCCACAGCAGAAGCGUUCACGUCGCAGCCCCUGUCAGAUUCUGGUGAAUCUGCGAGUUCUGCUGAAUAUCCC [A65G U74A U80C], with 1.03; and UAACAGGGGGCCACAGCAGAAGCGUUCACGUCGCAGCCCCUGUCAGAUUCUGGUGAAUCUGCGUAUUCUGCUGUUUUUCUC [A64U A75U A77U], with 0.47. For the variant UAACAGGGGGCCACAGCAGAAGCGUUCACGUCGCAGCCCCUGUCAGAUUCUGGUGAAUCUGCGAGUCCUGCUGUACAUCUC [A65G U67C U76C], the self-cleavage was 0.27. For the variant UAACAGGGGGCCACAGCAGAAGCGUUCACGUCGCAGCCCCUGUCAGAUUCUGGUGAAUCUGCGGAUUCUGCAGUAUAUAUC [A64G U72A C79A], the self-cleavage is 1.1. Then UAACAGGGGGCCACAGCAGAAGCGUUCACGUCGCAGCCCCUGUCAGAUUCUGGUGAAUCUGCGAGUCCUGCUGUCUAUCUC [A65G U67C A75C], with 0.29; and UAACAGGGGGCCACAGCAGAAGCGUUCACGUCGCAGCCCCUGUCAGAUUCUGGUGAAUCUGCGAAAUCCUCUGUAUAUCUC [U66A U69C G70U], with 0.31; and UAACAGGGGGCCACAGCAGAAGCGUUCACGUCGCAGCCCCUGUCAGAUUCUGGUGAAUCUGCGUAUUCUGCUGCAUAUCCC [A64U U74C U80C], with 0.35. Then UAACAGGGGGCCACAGCAGAAGCGUUCACGUCGCAGCCCCUGUCAGAUUCUGGUGAAUCUGCGGAUUCUGCUGCAUGUCUC [A64G U74C A77G], with 0.96; and UAACAGGGGGCCACAGCAGAAGCGUUCACGUCGCAGCCCCUGUCAGAUUCUGGUGAAUCUGCGUAUUCUGCUAUAUAUCCC [A64U G73A U80C], with 0.43; and UAACAGGGGGCCACAGCAGAAGCGUUCACGUCGCAGCCCCUGUCAGAUUCUGGUGAAUCUGCGAAAUCUGCUGUAUGCCUC [U66A A77G U78C], with 0.27. Then UAACAGGGGGCCACAGCAGAAGCGUUCACGUCGCAGCCCCUGUCAGAUUCUGGUGAAUCUGCGAACCCUGCCGUAUAUCUC [U66C U67C U72C], with 0.39; and UAACAGGGGGCCACAGCAGAAGCGUUCACGUCGCAGCCCCUGUCAGAUUCUGGUGAAUCUGCGGAUUCUGCAGUAUAUCCC [A64G U72A U80C], with 1.08.
